The whole screen tested about 410,000 compounds, of which about 260 (0.063%) were called active. The shares of active, inactive and inconclusive entries below differ from those in the screen. Calls come from the whole dose curve; as a rule, active = well fitted activation curve with a large enough effect; inconclusive = small, poorly fitted or top-dose-only effect; inactive = no such curve, though single readings can be large or run the other way. No potency is given beside an inconclusive call; the fits are too rough.
Experiment: qHTS for compounds that reverse cellular toxicity of Amyloid beta (A-beta) peptide in yeast: Primary Screen; note: nearly all actives have a fitted effect of over 55% in size
Conditions: yeast expressing A-beta42, growth rescue, OD600, 48 h; growth rescue: at 46.1 µM (top of the series), 0% DMSO, 100% iron-clioquinol control
Summary of the method: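 Yeast A-beta toxicity model in growth medium with pinned compounds, 48 h at 30 C; growth read as absorbance at 600 nm. Normalized to FeCl3/clioquinol equimolar mix (positive) and DMSO (negative).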
Potency is the fitted concentration of half-maximal effect; tags give direction and shape of the fitted curve.

SMILES | growth rescue | Potency
Cc1ccc(C(=O)NNC(=O)Cn2ccc(C(F)(F)F)n2)o1 | inactive: -8.79% | –
CC(C)CCNC(=O)C1CCN(C(=O)N2CCOc3ccc(Cl)cc32)CC1 | inactive: 7.43% | –
S=C(NCCCCc1ccccc1)NCc1ccccc1 | – | active: 15.8 µM
COc1ccc(N2CCC(CNC(=S)Nc3cc(C)cc(C)c3)C2)cc1 (centres undefined) | – | inconclusive [activator, single point]
O=C(O)C1CCN(Cc2ccccn2)CC1 | inactive: -2.03% | –
O=C(NC(=S)Nc1cccc2c(O)cccc12)c1cccc(Br)c1 | – | inconclusive [activator, single point]
COc1ccc(C2=CC(c3ccc(OC)c(OC)c3)NC(=S)N2)cc1 (centres undefined) | – | inconclusive [activator, partial curve]
Cc1cc(C)n2ncc(C(=O)NCCc3ccccc3)c2n1 | inactive: 12.9% | –
Cc1ccc(/C=N/NC(=O)C2=NNC(c3ccccc3)(c3ccccc3)C2)c(O)c1 | – | inconclusive [activator, partial curve, poor fit]
COc1ccc(CCCc2n[nH]c(=S)o2)cc1 | – | inconclusive [activator, single point]
CSCCC(c1nc2ccccc2[nH]1)n1c(=O)c(-c2cc3ccccc3[nH]2)nc2ccccc21 (centres undefined) | – | inconclusive [activator, partial curve, poor fit]
COc1ccc(OCc2cc(C(=O)NCCCc3ccccc3)no2)c(Cl)c1 | – | inconclusive [activator, partial curve, poor fit]
O=C(Nc1ccccc1Sc1ccccc1)c1ccccc1 | – | inconclusive [activator, single point]
Cn1ccc(/C=N/N=C2/NC(=O)CS2)n1 | – | inconclusive [activator, single point]
CCN(CC)CCOC(=O)CCc1cccc2ccccc12 | – | inconclusive [activator, single point]
Cc1ccc(NC(=O)Cc2cn(C)c3ccccc23)cc1F | – | inconclusive [activator, single point]
Oc1ccc(C23CC4CC(CC(C4)C2)C3)cc1O | – | inconclusive [activator, partial curve, poor fit]
O=C(Oc1coc(CSc2ncccn2)cc1=O)c1cccs1 | – | inconclusive [activator, partial curve]
O=C(c1ccco1)N1CCN(c2nc3c(Cl)cccc3s2)CC1 | inactive: -16.2% | –
O=S(=O)(Nc1ccc(F)cc1Cl)c1ccc(-c2cnc(C3CC3)o2)cc1 | – | inconclusive [activator, full curve, poor fit]
CN(C1=C(N2CCOCC2)C(=O)c2ccccc2C1=O)c1ccccc1 | inactive: -54.4% | –
O=C(COC(=O)C1CC(O)CN1S(=O)(=O)c1ccc(Cl)cc1)c1cccc(Cl)c1 (centres undefined) | – | inconclusive [activator, partial curve]
O=C(NC(=S)Nc1cccc([N+](=O)[O-])c1)C1CCCC1 | – | inconclusive [activator, partial curve]
Cc1ccc(-c2nc3ccc(Cl)cn3c2Cc2ccsc2)cc1 | inactive: -13.4% | –
COc1ccccc1C(=O)Nc1c(C(=O)N(C)c2ccccc2)sc2nc(C)cc(C)c12 | – | inconclusive [activator, single point]

SMILES | growth rescue | Potency
CC1(C(=O)Nc2cccc3cccnc23)CCN1C(=O)Cc1ccc(Cl)cc1Cl (centres undefined) | inactive: -7.63% | –
NC1=NC(=O)C(c2ccccc2)C(=O)N1 (centres undefined) | inactive: -2.14% | –
O=c1[nH]c2cc3c(cc2cc1CN(Cc1ccco1)C(=S)NCC1CCCO1)OCCO3 (centres undefined) | inactive: -8.68% | –
C/C(=N\NS(=O)(=O)c1ccc(C(C)(C)C)cc1)c1ccccc1 | – | inconclusive [activator, partial curve, poor fit]
O=C(Nc1ccc(S(=O)(=O)Nc2nccs2)cc1)c1cccc(N2C(=O)c3ccccc3C2=O)c1 | inactive: -4.95% | –
CCC(=O)NC(=S)NNC(=O)c1ccc(OC)cc1 | – | active: 10 µM
COc1ccc(NC(=O)CN(C)C(=O)c2cccc(S(=O)(=O)N3CCN(c4ccc(F)cc4)CC3)c2)cc1 | inactive: -8.69% | –
Cc1ccc(NC(=S)Nc2ccc(S(=O)(=O)Nc3ncccn3)cc2)c(C)c1 | – | inconclusive [activator, partial curve, poor fit]
CCOC(=O)/C=C1\SCC(=O)N1CC(=O)NCCc1ccc(F)cc1 | inactive: -3.95% | –
COCCn1c(SCc2cnc(-c3ccccc3)s2)nnc1-c1ccncc1 | inactive: -0.989% | –
Cc1cccc(OC(=O)CN2C(=O)C3C4CCC(C4)C3C2=O)c1C (centres undefined) | – | inconclusive [activator, partial curve, poor fit]
Cc1noc(C)c1S(=O)(=O)N1CCN(c2ccccc2Cl)CC1 | – | inconclusive [activator, partial curve, poor fit]
CC(C)(C)c1ccc(C(=O)Nc2cccc([N+](=O)[O-])c2)cc1 | inactive: 4.89% | –
OC(COc1ccc2ccccc2c1Cl)CN1CCOCC1 (centres undefined) | inactive: -11.4% | –
CCOc1ccc(Nc2c(S(=O)(=O)c3ccc(Cl)cc3)cnc3ccc(OCC)cc23)cc1 | inactive: 11.5% | –
O=S(=O)(Nc1nc2ccccc2nc1OCC(F)(F)F)c1cccs1 | inactive: -1.64% | –
COc1ccc(-c2ccc(C(=O)N3CCOCC3)c3occc23)c(C)c1 | inactive: -12.2% | –
COc1ccc2c(c1)CC(C(=O)NCCCN1CCN(c3cccc(Cl)c3)CC1)CO2 (centres undefined) | inactive: -8.25% | –
Cn1c2ccccc2c(=O)c2ccc(F)cc21 | inactive: -8.16% | –
Cc1nc(CN2CCN(S(=O)(=O)c3c(Cl)cc(Br)cc3Cl)CC2)cs1 | – | inconclusive [activator, single point]
C=CCNC(=S)N1CCN(c2ncc(C(F)(F)F)cc2Cl)CC1 | – | inconclusive [activator, partial curve, poor fit]
COc1ccc(S(=O)(=O)NCC2CCCN(Cc3ccc(OC)cc3F)C2)cc1 (centres undefined) | inactive: 5.65% | –
OCCN(Cc1ccccn1)Cc1ccccn1 | inactive: -44.4% | –
C=CCOc1ccc(C(=O)/C=C2/C(=O)Nc3ccccc32)cc1 | – | inconclusive [activator, partial curve, poor fit]
CN(Cc1ccccc1)S(=O)(=O)c1ccc2[nH]c3c(c2c1)CCCCC3 | inactive: 7.2% | –

SMILES | growth rescue | Potency
Cc1ccc(C(=O)Nc2ccc(N3CCOCC3)nc2N2CCOCC2)cc1 | – | inconclusive [activator, single point]
CC(=O)c1cccc(NC(=O)Nc2nnc(N3CCCC3)s2)c1 | inactive: -14.1% | –
CCc1ccc(Nc2nnc(SCC(=O)Nc3cccc(S(=O)(=O)NC4=NCCCCC4)c3)s2)cc1 | – | inconclusive [activator, partial curve]
COc1ccc(Cl)cc1NC(=O)c1ccc2c(c1)CCN2S(C)(=O)=O | inactive: -14.4% | –
Cc1cc(Br)ccc1NC(=S)NCCc1ccccc1 | – | active: 11.2 µM
CCCCc1nn2c(=O)cc(COC(=O)c3ccc(NC(=O)C(CC)CC)cc3)nc2s1 | inactive: -10.8% | –
O=C(Nc1nnc(C2CC2)o1)c1ccc(S(=O)(=O)N2CCCCC2)cc1 | – | inconclusive [activator, partial curve, poor fit]
O=C1CC(N2CCCc3ccccc32)C(=O)N1c1ccccc1Cl (centres undefined) | – | inconclusive [activator, full curve, poor fit]
COc1ccc(NCN2C(=O)C3C4C=CC(C4)C3C2=O)cc1 (centres undefined) | – | inconclusive [activator, single point]
Nc1ccc2nc(-c3ccc(-c4nc5ccc(N)cc5[nH]4)cc3)[nH]c2c1 | – | inconclusive [activator, single point]
COC(=O)c1c(NC(=O)CN2CCC3(O)CCCCC3C2c2ccccc2OC)sc(C)c1C (centres undefined) | – | inconclusive [activator, partial curve, poor fit]
Cc1cc(S(=O)(=O)N2CCN(c3ccccn3)CC2)c(C)cc1Cl | – | inconclusive [activator, single point]
COc1cc(S(=O)(=O)NCc2ccccc2)ccc1F | – | inconclusive [activator, partial curve]
Fc1ccc2[nH]c(-c3cccs3)cc2c1 | – | inconclusive [activator, partial curve]
Cc1noc(C)c1-c1ccc(C(=O)Nc2ccc(C(C)C)cc2)c2occc12 | – | inconclusive [activator, single point]
CN(C)S(=O)(=O)N1CCC(Oc2cccc(C(=O)N3CCCCCCC3)c2)CC1 | – | inconclusive [activator, partial curve, poor fit]
CC1CCCCN1C(=O)Cn1ncc2c3ccccc3n(Cc3ccccc3F)c2c1=O (centres undefined) | inactive: 0.947% | –
CC(C)c1nc(SCC(=O)N2CCCC2)c2c(=O)n(C)c(=O)n(C)c2n1 | inactive: -11.2% | –
Nc1nn(-c2ccccc2)c(N)c1N=Nc1cccc(F)c1 | inactive: -21.8% | –
Cc1csc(NC(=S)Nc2cccc(Cl)c2)n1 | – | inconclusive [activator, full curve]
Oc1ccc(/C(Cc2ccccn2)=N\Nc2ccccc2)c(O)c1 | – | inconclusive [activator, partial curve, poor fit]
CC(=O)C(Cc1ccccc1)(Cc1ccccc1)C(C)=O | inconclusive: 17.4% [activator] | –
CCOC(=O)c1ccc(NC(=O)c2nc[nH]c2C(=O)NCC(=O)OC(C)(C)C)cc1 | – | inconclusive [activator, single point]
O=C1CC(N(C(=O)c2ccco2)c2cccc(Cl)c2)C(=O)N1c1cccc(Cl)c1 (centres undefined) | – | inconclusive [activator, partial curve]

Reference: PubChem BioAssay AID1347071 (National Center for Advancing Translational Sciences (NCATS), 2019)
